{"source": "patent US7122563B2", "about": "“Derivatives of 4-demethylpenclomedine, use thereof and preparation thereof” (Southern Research Institute, priority 2005, dated 2006)", "system": "MX-1 Mammary Tumor", "experiment": "MX-1 mammary tumor implanted in the mammary fat pad of mice, i.p. treatment", "settings": "dosages of 135, 90 and 60 mg/kg per dose"}
{"smiles": "COc1nc(C(Cl)(Cl)Cl)c(Cl)c(OC(=S)N(C)C)c1Cl", "note": "[DM-DMTC-PEN]", "values": [{"measurement": "antitumor activity in comparison to DM-PEN", "value": "potent antitumor activity greater than that observed for DM-PEN"}]}
{"smiles": "CCN(CC)C(=S)Oc1c(Cl)c(OC)nc(C(Cl)(Cl)Cl)c1Cl", "note": "[DM-DETC-PEN]", "values": [{"measurement": "antitumor activity in comparison to DM-PEN", "value": "potent antitumor activity greater than that observed for DM-PEN"}]}
